Hit rate of the full screen: of about 340,000 compounds, about 6,900 (2%) were called active. Rule as the data show it: active = inhibition above about 30%; inactive = below that, where a call was filed. The entries are a selection whose mix differs from that of the whole data set. Where no call is shown, the source filed none. A structure can be active in one record and inactive in another.
target: D(2) dopamine receptor (Homo sapiens) (UniProt P14416); test: HTS Assay for Allosteric Antagonists of the Human D2 Dopamine Receptor: Primary Screen for Antagonists; details: HEK293 TREx D2 cells, calcium flux, dopamine EC80; at 10 µM; stronger effect = higher value; also: 0% is about no effect
Chain of UniProt P14416 (P14416 whole entry, looked up): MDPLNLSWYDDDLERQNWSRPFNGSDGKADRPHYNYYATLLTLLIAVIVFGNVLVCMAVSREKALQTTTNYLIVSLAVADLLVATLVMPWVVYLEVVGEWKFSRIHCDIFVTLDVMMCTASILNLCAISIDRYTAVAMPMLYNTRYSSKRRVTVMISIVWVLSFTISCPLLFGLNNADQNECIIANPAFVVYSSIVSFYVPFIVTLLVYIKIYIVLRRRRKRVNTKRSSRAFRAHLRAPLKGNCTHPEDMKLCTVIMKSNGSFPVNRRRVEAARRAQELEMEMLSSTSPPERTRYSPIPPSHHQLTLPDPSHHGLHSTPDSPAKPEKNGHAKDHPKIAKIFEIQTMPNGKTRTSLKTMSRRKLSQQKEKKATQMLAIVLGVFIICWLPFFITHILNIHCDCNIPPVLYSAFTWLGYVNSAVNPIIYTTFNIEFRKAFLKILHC
Method in brief: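 Inhibition of EC80 dopamine-driven calcium flux, recorded kinetically, defines activity here; cells are a tetracycline-induced HEK293 T-REx line expressing force-coupled D2.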

Q: For COc1ccc(-c2nc(C(N)=O)c3c(n2)n(-c2ccccc2OC)c(=O)n3C)c(OC)c1, which inhibition is on record?
A: -6.4%

Q: How did the inhibition turn out when COc1cccc(OCC(O)CN2CCN(c3ccccn3)CC2)c1 (centres undefined) was run?
A: active: 91.5%

Q: How did the inhibition turn out when O=C(c1ccc(F)cc1)N1CCC(c2nc3ccccc3o2)CC1 was run?
A: 12.6%

Q: With CC(C)NC(=O)CC(=O)Nc1ccc2nc3n(c(=O)c2c1)CCCCC3 as the compound, how does the inhibition read?
A: -7.06%

Q: With O=C(NC1CCCCCC1)c1cc2c(Cl)nc3ccccc3c2s1 as the compound, how does the inhibition read?
A: -23.1%

Q: CCOc1ccccc1NC(=O)C(NS(=O)(=O)c1ccc2c(c1)CCC(=O)N2)c1ccccc1 (centres undefined) was tested. Which inhibition did it give?
A: 18.1%

Q: CCOC(=O)c1ccc2c(c1)N(CC(=O)Nc1ccc(C)cc1C)C(=O)c1ccccc1S2 was tested. Which inhibition did it give?
A: 6.31%

Q: With COc1ccc(NC(=O)c2nnn(Cc3nc(-c4cc(OC)c(OC)c(OC)c4)oc3C)c2C)cc1 as the compound, how does the inhibition read?
A: 19%

Q: How did the inhibition turn out when CCN(CC)C(=O)Cn1cc(SCC(=O)Nc2ccccc2F)c2ccccc21 was run?
A: -9.71%

Q: With COc1ccc(NC(=O)CN2C(=O)COc3ccc(S(=O)(=O)Nc4ccccc4)cc32)cc1OC as the compound, how does the inhibition read?
A: 9.57%

Q: Which inhibition does the source give for Cc1c(Cl)cccc1Nc1nn2c(=O)c3ccc(C(=O)NCCc4ccccc4)cc3nc2s1 here?
A: 0.054%

Q: CCN(c1cccc(C)c1)S(=O)(=O)c1ccc2c(c1)NC(=O)CCS2 was tested. Which inhibition did it give?
A: -4.29%

Q: O=C(COCc1cc(-c2cccs2)on1)Nc1cccc(Cl)c1Cl was tested. Which inhibition did it give?
A: -3.78%

Q: O=C(NC1CC(=O)N(c2ccccc2)C1)c1ccc(Br)o1 (centres undefined) was tested. Which inhibition did it give?
A: -9.73%

Q: Which inhibition does the source give for Cc1cccc(N(CC(=O)NCCSCc2ccc(Cl)cc2)S(C)(=O)=O)c1C here?
A: -0.63%

Q: COc1cccc(CNC(=O)C2CCN(c3nn4c(=O)cc(C)nc4s3)CC2)c1 was tested. Which inhibition did it give?
A: 5.01%

Q: For COc1ccccc1Cn1c(CNS(=O)(=O)c2ccccc2Cl)nc2cccnc21, which inhibition is on record?
A: 9.93%

Q: How did the inhibition turn out when CCOc1ccc(NC(=O)c2cc3c(n(-c4ccc(OC)cc4)c2=O)CC(C)(C)CC3=O)cc1 was run?
A: 10.6%

Q: Which inhibition does the source give for COc1cc(Br)cc(CN2CCN(c3ncccn3)CC2)c1O here?
A: active: 73.9%

Q: With CCOc1cc(CNC(=O)CCCn2c(=O)c3cccn3c3cccnc32)cc(OCC)c1OCC as the compound, how does the inhibition read?
A: 5.16%

Q: With CCc1ccccc1NC(=O)CSc1ncc(S(=O)(=O)c2ccccc2)c(N)n1 as the compound, how does the inhibition read?
A: -3.79%

Q: With CC(=O)Nc1cccc(NC(=O)CSc2cn(CC(=O)N(C(C)C)C(C)C)c3ccccc23)c1 as the compound, how does the inhibition read?
A: 3.35%

Q: Which inhibition does the source give for Cc1oc(-c2ccc(Cl)cc2)nc1Cn1c(=O)cc(C)c2c(C)nn(-c3cccc(F)c3)c21 here?
A: 14%

Q: How did the inhibition turn out when Cc1ccc(C(=O)Nc2ccc(C(=O)OCc3cc(=O)n4nc(C5CC5)sc4n3)cc2)cc1 was run?
A: 17.3%

Q: Which inhibition does the source give for CCn1cc(C(=O)N2CCN(c3ccc(F)cc3)CC2)c(=O)c2cc(S(=O)(=O)N3CCOCC3)ccc21 here?
A: -5.38%

Q: Which inhibition does the source give for COc1ccc(N2CCN(c3c4c(nc5nncn35)CCC4)CC2)cc1 here?
A: 5.42%

Q: For COc1ccc(NC(=O)C(=O)NCC(c2ccc3c(c2)OCO3)N2CCN(C)CC2)cc1 (centres undefined), which inhibition is on record?
A: -26.3%

Q: Cc1ccc2c(c1)sc1nc(-c3cc4ccccc4oc3=O)cn12 was tested. Which inhibition did it give?
A: 2.26%

Q: Which inhibition does the source give for CCOC(=O)c1ccccc1NC(=O)CN1C(=O)CC(c2ccco2)Sc2ccccc21 (centres undefined) here?
A: -2.1%

Q: Which inhibition does the source give for CCc1ccccc1NC(=O)Cn1nnc(-c2nc(-c3ccc(C)cc3)no2)c1N here?
A: 0.375%

Q: Which inhibition does the source give for Cc1c2cnn(CC(=O)N3CCN(c4ccc(F)cc4)CC3)c(=O)c2c(C)n1Cc1ccccc1F here?
A: -5.66%

Q: How did the inhibition turn out when CC(=O)c1ccc(OCC(O)CN2CCN(Cc3ccc4c(c3)OCO4)CC2)cc1 (centres undefined) was run?
A: active: 56.2%

Q: Which inhibition does the source give for CN(C)c1ccc(CNC(=O)Cn2ccc3cc(S(=O)(=O)N4CCCCCC4)ccc32)cc1 here?
A: 2.03%

Q: With COc1ccc(-c2nc(Cn3c(=O)cc(C)c4c(C)nn(-c5ccccc5)c43)c(C)o2)c(OC)c1 as the compound, how does the inhibition read?
A: -27.8%

Q: With Cc1ccc2c(c1)C(c1ccc(F)cc1)N(C(=O)c1cccc(C(F)(F)F)c1)CC(=O)N2 (centres undefined) as the compound, how does the inhibition read?
A: -2.47%

Q: For Cc1ccc(-n2nnnc2CNC(=O)c2ccccc2C)cc1C, which inhibition is on record?
A: -1.92%

Q: For COc1cccc(N2CCN(Cc3cc(=O)oc4cc(C)ccc34)CC2)c1, which inhibition is on record?
A: 15.3%

Q: How did the inhibition turn out when CC(C)OCCCN1C(=O)c2[nH]nc(-c3ccccc3O)c2C1c1cccc(OCc2ccccc2)c1 (centres undefined) was run?
A: 18.4%

Q: How did the inhibition turn out when N#Cc1cccc(NC(=O)CCNS(=O)(=O)c2ccc3c(c2)CCN3C(=O)C2CC2)c1 was run?
A: -17.2%

Q: How did the inhibition turn out when COc1ccc(Cl)cc1NC(=O)Cn1cnc2sc(C)c(S(=O)(=O)N3CCN(c4ccccc4OC)CC3)c2c1=O was run?
A: 12.6%

Q: O=C(CC1Nc2cccc3cccc(c23)NC1=O)Nc1ccc(F)cc1 (centres undefined) was tested. Which inhibition did it give?
A: 5.46%

Q: Which inhibition does the source give for O=C(CCn1cnc2onc(-c3ccc(F)cc3)c2c1=O)N1CCN(c2ccccc2F)CC1 here?
A: 5.93%

Q: Which inhibition does the source give for C=C(C)c1cccc(C(C)(C)NC(=O)N2CCN(c3ccccn3)CC2)c1 here?
A: active: 31.2%

Q: CNS(=O)(=O)c1cn(CC(=O)N2CCN(c3ccccc3OC)CC2)cc1S(=O)(=O)NC was tested. Which inhibition did it give?
A: 0.123%

Q: How did the inhibition turn out when Cc1ccc(C(=O)CC2(O)C(=O)N(Cc3ccccc3)c3ccccc32)c(C)c1 (centres undefined) was run?
A: -0.147%

Q: How did the inhibition turn out when Cc1ccc2c(CC(=O)N(Cc3cccc(Cl)c3)C3CCS(=O)(=O)C3)coc2c1 (centres undefined) was run?
A: -9.67%

Q: Which inhibition does the source give for CCOC(=O)C1CCCN(C(=O)c2ccc(NC(=O)c3nsc4ccccc34)cc2)C1 (centres undefined) here?
A: -0.764%

Q: Which inhibition does the source give for COC(=O)c1ccccc1NC(=O)Cn1c(=O)cc(C)c2c(C)nn(-c3cccc(Cl)c3C)c21 here?
A: 7.95%

Q: How did the inhibition turn out when CC(=O)c1ccc2c(c1)N(CCCN1CCC(CCO)CC1)c1ccccc1S2 was run?
A: active: 74.2%

Q: How did the inhibition turn out when Cc1cccc(C(=O)OCc2cc(=O)n3nc(-c4cccs4)sc3n2)c1 was run?
A: -5.14%

Q: Cc1ccc(C)c(NC(=O)Cn2c(=O)n(Cc3ccc4c(c3)OCO4)c(=O)c3ccccc32)c1 was tested. Which inhibition did it give?
A: -14%

Q: For CCCSc1nnc2n(-c3cccc(C)c3)c(=O)c3c4c(sc3n12)CCCC4, which inhibition is on record?
A: 12%

Q: Which inhibition does the source give for Cc1ccc(-n2ncc(C(=O)NCCCN3CCN(C)CC3)c2C2CCN(C(=O)OC(C)(C)C)CC2)c(C)c1 here?
A: -6.08%

Q: CC(C)(C)OC(=O)N1CCC(c2c(C(=O)N3CCCCC3)cnn2-c2ccc(F)cc2F)CC1 was tested. Which inhibition did it give?
A: 4.99%

Q: How did the inhibition turn out when COc1ccc(OC)c(Nc2c3c(nc4ccccc24)CCC3)c1 was run?
A: 4.87%

Q: With COc1cc(Cl)c(NC(=O)C(NS(=O)(=O)c2cccs2)C(C)C)c(OC)c1 (centres undefined) as the compound, how does the inhibition read?
A: 1.94%

Q: For CCCN(Cc1cccs1)C(=O)Nc1ccc(F)c(Cl)c1, which inhibition is on record?
A: -5.53%

Q: With CCc1ccc(NC(=O)c2ccc(F)c(S(=O)(=O)NCCc3ccc(OC)c(OC)c3)c2)cc1 as the compound, how does the inhibition read?
A: 13.4%

Q: Which inhibition does the source give for CS(=O)(=O)N1CCc2cc(C(=O)Nc3ccc(S(N)(=O)=O)cc3)ccc21 here?
A: -2.41%

— PubChem BioAssay AID485344 (National Center for Advancing Translational Sciences (NCATS), 2010)
